# Data from the supplement of paper PMC11417369.
# ± gives the standard deviation of the averaged measurements. This is one part of the list.
# System: PfAP2-EXP AP2 domain (GST-tagged)
# Assay: gcPBM binding intensity (ln(normalized median fluorescence intensity)); higher = stronger DNA binding
# In short: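 The binding buffer was 1× PBS containing 1% milk, 0.2 mg/ml BSA, 0.5% salmon testes DNA and 0.03% Triton X-100. In it, GST-tagged P. falciparum DNA-binding domains expressed in E. coli were applied for 1 h to an Agilent 4 × 180k array of primer-extended double-stranded 36-bp intergenic genomic probes plus negative controls. Binding intensity, read with Alexa488 anti-GST antibody and a 488 nm scan, is the highest Masliner-normalised natural-log median intensity across replicate spots of either probe orientation.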
row,Sequence,gcPBM binding intensity (ln)
1,TTTTTTTTATGTATCACACATAATTTTTTATTATGA [CACACA_site5534],8.51 ± 0.35
2,ATAATAACAAGGCGCTGTACTGTACCGTTTTTCATA [XGTACX_site6135],8.94 ± 0.4
3,CATCCACAAATATGTACACACATATATAAATATGTA [CACACA_site7407],8.45 ± 0.35
4,TGCTCTAATTTATATACACACAAATATGTACACATA [CACACA_site7845],8.61 ± 0.4
5,TAATTTTTTTAAGAGAGTACATGACTCAACAGTTTA [XGTACX_site3103],8.26 ± 0.44
6,TTTCATAAATAATAAAATAAAATATGAAGCAAAAGG [CACACA_negctrl_site1767],8.7 ± 0.42
7,TTTTTTTTTTTTTGGAGTACATGTTTATAACATAAT [XGTACX_site1799],8.4 ± 0.4
8,TTATATCCAACTTGAAAAAAGGTATATGTTTATATA [CACACA_negctrl_site1746],8.21 ± 0.41
9,GAAATATTACAAAGTACATGCAACGAAAATTTCAGT [TGCATGCA_site608],9.12 ± 0.34
10,GATAATACATAAATTTATAAGTGGAAGAATAAATAA [CACACA_negctrl_site698],8.99 ± 0.37
11,ACAAACAAATAAATATGTACGAATAAATAAAATTTT [XGTACX_site4664],8.58 ± 0.31
12,TTTTTTTTCAAAAATACAAAAAAAAAAGAAAAAAAC [CACACA_negctrl_site625],8.72 ± 0.44
13,CTTTTAGAATAATCAGTGCAAAAAAAAAAAAAAAAA,8.325 ± 0.049
14,ATGTGTTTCTTCAATTGTACTAAAAGGTATATATTG [XGTACX_site4608],8.84 ± 0.47
15,TTATTCTAAAAATATACACACAACAACAAACAAACA [CACACA_site1543],9.04 ± 0.39
16,ATTATTTAAATTTAACGTACGGAATAAGACATAGAT [XGTACX_site8622],9.26 ± 0.49
17,ATACTATAATATAAAACACACATATGTACCTTCTAA [CACACA_site7323],8.5 ± 0.42
18,TATATAATATATAAATGTACTTTTGTCTTATATGAA [XGTACX_site7211],8.35 ± 0.43
19,TAGTAACTTGTATTCACACAAATTATATTATATTAC [CACACA_site5041],8.58 ± 0.4
20,AATCATTAAAGCATAATGTTTATGATCAATATGAAA [CACACA_negctrl_site887],8.27 ± 0.33
21,TTTTTTTTTTTTTTTTTTTTACAGAAAAATATTAAA [CACACA_negctrl_site128],8.02 ± 0.47
22,TTCAGGTAATAACATTGTACATGTGTATCATAATTA [XGTACX_site6740],8.55 ± 0.35

row,Sequence,gcPBM binding intensity (ln)
1,TACACCCACATATATATACACACTTTTATTTAAATA [CACACA_site1596],8.7 ± 0.38
2,AATATATATATATGTGCACACATATATAATATGTAT [CACACA_site716],8.53 ± 0.28
3,AAAAAAAATAATGTTGCACACAACAACAAACAAAAA [CACACA_site3290],8.57 ± 0.54
4,CAATATGGAAAATAAAGTACGCACACAAAAATTCTC [XGTACX_site4793],8.94 ± 0.4
5,TAGATAAAATGAACATGTACTCATCTTAATATATAT [XGTACX_site34],8.38 ± 0.31
6,TCATTATATACAATATGTACATATATGTAATAAACA [XGTACX_site4611],8.52 ± 0.38
7,AAAGGATATGCTTCATATATATATTGTTATATATGT [CACACA_negctrl_site1672],8.17 ± 0.4
8,AGCACACGCAGACACACACACACACGCACACGCACA [CACACA_site6306],8.46 ± 0.42
9,AGAAAGAAAGAATACACACACACATATATATATATC [CACACA_site3744],8.86 ± 0.32
10,AAAGAATTCATTATTTGTACTTAAATAAATAAATAA [XGTACX_site5932],8.27 ± 0.26
11,ATAACACAAAAAGGGGGTACAATAAAAAAAAAAAAA [XGTACX_site1652],8.94 ± 0.15
12,AATACCTATAATACAACACACAAGTAATATAAACCT [CACACA_site7661],8.8 ± 0.68
13,TATTTATATAGGTATACACACATACAAATATGTAAA [CACACA_site7705],8.24 ± 0.38
14,ATAAGAAGGAACATAAATATATCATAAAAAAAAAAA [GTGCAC_negctrl_site169],8.56 ± 0.35
15,TAAAATTTTTTATTCACACAAATATAGTTATATATA [CACACA_site5348],8.12 ± 0.42
16,AAATTAATATAAATATGTACATAAATAATAAAATAT [XGTACX_site6131],8.71 ± 0.5
17,AAGGAATAAAGAAGTTGTACATAATTTGTATCATCC [XGTACX_site3891],8.62 ± 0.36
18,GTTTTCCTTCCCTTTCCCCCTCAAAAAAAGGGAACA [TGCATGCA_negctrl_site436],9.55 ± 0.33
19,GGAGGTTGTTATAAAAGTACAAAAAGTTGCAATTTT [XGTACX_site7351],8.77 ± 0.43
20,ATTTTTCAAACTTTAGTGCAATGAAAGAAAGAAAAA,8.7 ± 0.18
21,ATTTAATACATACATTCACACACACTAATTGTATAT [CACACA_site9361],8.74 ± 0.45
22,AAAAAAAAAAAAACTTGTACATGTGATATTATCTAT [XGTACX_site6169],8.65 ± 0.55
